Assay results as given in the supplement of paper PMC10126150.
Sequences with one replicate were seen in a single cluster, so their values are uncertain.

Tested on: ATP
Assay: switch fluorescence ratio, 500 uM ATP over buffer (Cy3 cluster intensity, sum of 5 cycles each) (fold (ratio)); higher = stronger signal-on switching upon ATP binding; sequences stand for … in TCGTCGGCAGCGTCAGATGTGTATAAGAGACAGTTTTTTTTTTTTTTTTTTTTTTTTT…TC
Details: aptamer strand: ATP DNA aptamer (quencher-CACCTGGGGGAGTATTGCGGAGGAAGG + anchor), 100 nM annealed; ATP concentration: 500 uM; one replicate
Method in brief: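 The quencher-labelled ATP aptamer, at 100 nM, was annealed to Cy3-labelled switching-strand clusters on a modified Illumina MiSeq flow-cell. The clusters were imaged in selection buffer, then after 15 min with 500 uM ATP at 22 °C, and this buffer/ATP cycle ran five times with NaOH stripping and re-annealing between runs. Per-cluster fluorescence ratios, summed target-cycle over summed buffer-cycle Cy3 intensity, were averaged per switch-domain sequence. Clusters outside 100-1000 RFU were excluded.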
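Note: ATP exposure 15 min at 22 °C before imaging.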

Sequence | switch fluorescence ratio
TATTCTGGTG | 0.978
TCGACGGGGT | 1.14
AGATGCTAAT | 1
GCTCTATTGT | 1.01
TAGAACCCTT | 1
CATTAAGCGC | 0.968
TATCTTGAAG | 1.03
CTTGGGGTTG | 0.981
ACGTGGGAG | 1.02
CCGTTTGGAA | 1.03
TTATTTCCTT | 1
TTTTAGGCT | 0.986
CCACACGCGG | 1.73
TCGAGGAGCT | 1.06
ATCATGGGT | 0.962
TTAGCGAAT | 1.04
CTGCGCGTC | 1.17
ACGCGACTAA | 1.11
TACACAGGGT | 1.06
TAGAGGGTAT | 1.01
AAGTACTTTG | 1.11
AGATCATAGC | 1.02
GCAAGGATGG | 1
GGCATGTAAT | 0.99
ATGTACCGGG | 1.09
CATCTCAAAG | 1.03

Sequence | switch fluorescence ratio
GTGGACATCT | 1.07
TTTTCTTAAA | 1
CGGTGCTGAG | 1.02
ACACGAAATA | 1.12
TTATCGGAAG | 0.912
AGCGGTGGCA | 0.97
ACTAGTAAA | 0.992
TTCGTCGGAC | 1.09
ACTAAATACG | 1.12
CTCGGGGGCC | 1.05
ATGATGTCCT | 1.01
GAAGCAAGTG | 1.57
TCGGTCTCGC | 1.02
GTGGTAATAG | 1.02
AACGCGAGTG | 0.95
ATCCTATTAG | 1.01
TATGAGTCCC | 0.969
TTTGTCAAGT | 1.02
CGGGCCCAAG | 1.03
GGGTTCGCGC | 1.03
ATGATAGACG | 0.99
TCTGAGCGCA | 1.73
ACTTAGGTTC | 1.02
GGTGCTAGG | 0.984
TTTTTAAGA | 1.01
TTTTTATCAC | 1.04

Sequence | switch fluorescence ratio
GATTGGGTCT | 0.971
TTTACGGCAT | 1.15
GTCGGTGCTC | 1.03
GGAGTTATTA | 1.01
CAAACTGACA | 1.09
TCTCAACCTT | 1.1
CTACCATCTG | 1.03
GAATTAATA | 1.01
TTAACACGGG | 0.999
CAGTCTGTTT | 0.976
CGAAGAAAGA | 1.01
TTTCAACCG | 0.978
TCCTTCTTGG | 1.56
GATTACTTAG | 1.06
TCCATGATT | 1.02
CACACATGTT | 1.05
TGGGAGATCA | 1.02
GAACCTTAGA | 1.04
ATGGGGCGGT | 0.923
TAGGACTTGT | 0.976
ACAGGCGTGT | 1.03
CATCGCACGG | 1.33
GCCTTAGTAA | 1.03
CGATTGGGTG | 1.04
ACGGTCCTCG | 1.01
CGGCGAGGAA | 1.01

Sequence | switch fluorescence ratio
GGGCCCAGGT | 1.24
GTTCTGGGAC | 0.987
GAAACGTGTT | 0.977
TGTCACGAAG | 0.986
ATGCATGGTG | 1.04
TCAGAAGAGT | 1.02
GAGTTTTGCA | 1.01
TATTAATGTA | 1.01
GCAACAGTTT | 0.997
TCGGCATCT | 0.984
TAGTCTCTTA | 0.989
TTTCATAGAT | 0.993
GGCAGTTCTG | 1.02
GGTGCCGGTG | 0.99
CGTTGCTCCT | 0.998
ATTGTGACGG | 1.01
CTGCATTTTG | 1.02
AATGGATCGT | 1
GTCATCTGTT | 0.964
GTTATAATAG | 1.01
TACTCAGAAG | 1.06
TACCTCCCA | 1.38
GGGTGGAGCG | 1.06
CATGAAGAGG | 0.966
TTTCGGAATG | 1.97
GTGGTCGCAA | 1.01

Sequence | switch fluorescence ratio
GCTCAACTTG | 0.988
TTATATGAGC | 1
ACGTGAGTAG | 1.01
AGTTGTGCGG | 1.02
ATTTCCAGGA | 1.01
GGTTAGTTCG | 0.989
ATCTACAATT | 1.04
GCGGTAACGA | 1.04
TTGTGTGAGA | 1.04
GGAGCGGGAC | 3.82
CTAATTGCAT | 1.04
TAATTACGTG | 1.01
GCCGTTAGTG | 1.01
GGAGAAGTAG | 1.07
ATACCTGCGA | 1.09
ACGCGGCTTG | 1
TTGACAAAAC | 1
CGCGTCATAA | 1.11
CAGGATACAC | 1.06
TCTAACAGGG | 1.11
TAGTTCCTTT | 1.01
GGCGATACAG | 1.09
AAGATGCATG | 1.02
TTCTTGTG | 1
CAGTGTTTTT | 0.974
TTAATTAGGA | 1.03

Sequence | switch fluorescence ratio
TGGGCGTTGG | 0.978
GGGATTGTCC | 0.996
TATCGATTAC | 1.03
TTTGGCGC | 0.977
TTCTTGAGTG | 0.993
AAAGCTTAGT | 0.975
CCCAAATGCC | 1.06
TCTTAACATA | 1.03
TTCACCCGGG | 1.04
GGAAACGGAA | 1.01
TTTGATGCAC | 1.15
CAAGACAATC | 1.24
ACTCTAAAGG | 1.12
ATACGATCG | 1.03
CTCTTTTAGT | 1
ACATTACAAT | 1.2
TCTGAAATGT | 0.965
TGCGCAGCTA | 1.03
TATTGTAGGT | 1.42
AAGAAATAAT | 1
CTCGGGTTCG | 0.97
AAAGGGGTA | 0.991
GCCGTTTTTG | 1.03
TCAGTTCCGT | 1.03
ATAAGTGGCC | 1.03
GCGACGGCAA | 2.46

Sequence | switch fluorescence ratio
TTAGGTCGTC | 1.02
ACTGGGCCCC | 1.02
GGTATAGTTT | 0.953
GCCTCGTTCG | 1.01
ACTCTGAGGT | 1.05
ATAGTGTGAA | 0.942
CTGCCAATCT | 1.2
ACTTCGTTGT | 1.02
TTGTGGTCCG | 1
TAAAAATTT | 0.984
AGAGCTTG | 1.04
AGTCAAAAAC | 0.983
TTTGGCGCAG | 1
GAATCCCGGT | 1.03
AAATATACTC | 1.16
ACTTTATTGA | 1.01
CAGTTTGTAA | 1.01
ACACGGGATC | 1.07
CGGATCGGCA | 1.02
CTACTTAGG | 1.03
TAGCATGAGG | 0.995
GGCACTTAAT | 1.05
GGGGGATGAG | 0.98
TCTCTTATTA | 1.01
ATGAACGCTT | 1.05
AAAAATCTAC | 1.06

Sequence | switch fluorescence ratio
TCCCCAGGAT | 1.06
GAGTTACGGT | 1.01
CTCTATGTTC | 1
GAATAGAAGC | 0.974
CAGTAGTCCT | 1.03
TTCGAGGGAT | 1.01
CTCTTGATAG | 1.04
TTTGTCACCA | 1.02
TAAGACGG | 0.988
TTTTTACTAC | 1.04
GAGACAGAGC | 1.01
CTCGACTTGC | 1.08
ATCTGGTCAC | 0.998
GAAAATGGCC | 1.01
ATTATACCAT | 1
CCTTTGGACG | 1.05
AAAAGACAAA | 0.976
AGAACTTCGG | 0.99
CTTGGATATA | 1.03
